Measured values as given in PubChem BioAssay AID624417 (National Center for Advancing Translational Sciences (NCATS), 2012).
The whole screen tested about 410,000 compounds, of which about 6,400 (1.6%) were called active. The inconclusive results got no clear call from the source; some entries with a clear call stand among them for comparison. Calls come from the whole dose curve; as a rule, active = well fitted inhibition curve with a large enough effect; inconclusive = small, poorly fitted or top-dose-only effect; inactive = no such curve, though single readings can be large or run the other way. No potency is given beside an inconclusive call; the fits are too rough.

The compounds below were run against Glucagon-like peptide 1 receptor (Homo sapiens) (UniProt P43220) (assay: qHTS of GLP-1 Receptor Inverse Agonists (Inhibition Mode)). Details: HEK293 GLP-1R CRE-luciferase, luminescence, 24 h, GLP-1R form is constitutively active; series mostly up to 38.3 µM.
Outline: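 Readout was luciferase luminescence, measured 12 min after detection reagent at room temperature. Beforehand, GLP-1R reporter HEK293 cells had sat 12 h, then received compounds for 24 hr at 37 deg C.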
Note: nearly all actives have a fitted effect of over 55% in size.
Potency is the fitted concentration of half-maximal effect; tags give direction and shape of the fitted curve.

UniProt P43220, sequence (P43220 whole entry, looked up): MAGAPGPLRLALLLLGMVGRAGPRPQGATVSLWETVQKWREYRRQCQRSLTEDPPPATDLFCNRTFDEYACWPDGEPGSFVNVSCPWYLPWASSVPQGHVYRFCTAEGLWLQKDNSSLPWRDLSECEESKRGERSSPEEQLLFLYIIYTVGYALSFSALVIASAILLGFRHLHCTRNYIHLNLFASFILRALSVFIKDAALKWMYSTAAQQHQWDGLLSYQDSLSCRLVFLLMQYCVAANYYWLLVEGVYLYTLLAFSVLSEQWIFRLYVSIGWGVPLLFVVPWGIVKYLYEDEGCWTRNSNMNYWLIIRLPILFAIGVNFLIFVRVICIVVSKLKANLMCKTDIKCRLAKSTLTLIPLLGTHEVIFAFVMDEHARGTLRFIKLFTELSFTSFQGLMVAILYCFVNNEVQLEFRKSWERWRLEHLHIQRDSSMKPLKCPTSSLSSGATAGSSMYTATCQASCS

Question: COc1ccccc1C(=O)Nc1nc2ccccc2[nH]1 was tested. Which Potency did it give?
Answer: inconclusive [inhibitor, full curve, poor fit]

Question: With CCOc1ccccc1OCCCCOc1ccccc1F as the compound, how does the Potency read?
Answer: inconclusive [inhibitor, single point]

Question: OCC1(Cc2cccc(Cl)c2)CCCN(Cc2sc(N3CCCC3)nc2Cl)C1 (stereo unspecified) was tested. Which Potency did it give?
Answer: inconclusive [inhibitor, partial curve, poor fit]

Question: For COc1cccc(C(c2nnnn2C(C)(C)C)N2CCN(C/C=C/c3ccccc3)CC2)c1OC (stereo unspecified), which Potency is on record?
Answer: inconclusive [inhibitor, single point]

Question: Which Potency does the source give for CCOc1ccc(CCNC(=O)CCc2nc(-c3ccc(C)cc3)no2)cc1OCC here?
Answer: inactive

Question: Which Potency does the source give for CC1CCCCN1C(=O)CN1CCC(c2nc3ccc(Cl)cc3[nH]2)CC1 (stereo unspecified) here?
Answer: inconclusive [inhibitor, single point]

Question: With COc1ccc(NC(=O)CN(c2cccc(C)c2C)S(=O)(=O)c2ccccc2)cc1OC as the compound, how does the Potency read?
Answer: inconclusive [inhibitor, single point]

Question: With O=C1CN(CC(=O)Nc2cccc(Cl)c2Cl)c2ccccc2N1 as the compound, how does the Potency read?
Answer: active: 10 µM

Question: How did the Potency turn out when CCNC(=O)CON=C1c2ccccc2-c2ccccc21 was run?
Answer: inconclusive [inhibitor, single point]

Question: For CSC1=N/C(=C\C=C\c2cccs2)C(=O)S1, which Potency is on record?
Answer: inconclusive [inhibitor, partial curve]

Question: For COC(=O)c1cc(=O)n(Cc2cccs2)c(=Nc2ccc(F)cc2)s1, which Potency is on record?
Answer: active: 3.55 µM

Question: COc1ccc(N2CCN(C(=O)c3cccc(S(=O)(=O)N4CCCc5ccccc54)c3)CC2)cc1 was tested. Which Potency did it give?
Answer: inconclusive [inhibitor, single point]

Question: For CCn1cc(CN2CCCC(C(=O)c3ccc(-c4ccccc4)c(F)c3)C2)cn1 (stereo unspecified), which Potency is on record?
Answer: inconclusive [inhibitor, single point]

Question: For O=C(c1ccco1)N1CCN(C(=O)C2CC(c3ccc(Cl)cc3)=NO2)CC1 (stereo unspecified), which Potency is on record?
Answer: inconclusive [inhibitor, full curve, poor fit]

Question: O=C(CCc1ccncc1)N1CCCC(Nc2ccc(F)cc2)C1 (stereo unspecified) was tested. Which Potency did it give?
Answer: inconclusive [inhibitor, single point]

Question: CCCCC(CC)CNC(=O)c1ccc2c(c1)OCO2 (stereo unspecified) was tested. Which Potency did it give?
Answer: inconclusive [inhibitor, single point]

Question: Which Potency does the source give for CCN(CC)C(=O)Cn1cc(C(=O)C(=O)NCCc2c[nH]c3ccccc23)c2ccccc21 here?
Answer: inconclusive [inhibitor, single point]

Question: Which Potency does the source give for CN(C)c1ccc(NC(=O)Cn2c(SCc3ccc(F)cc3)nc3cccnc32)cc1 here?
Answer: inactive

Question: Brc1ccc2[nH]c3c(N4CCc5ccccc5C4)ncnc3c2c1 was tested. Which Potency did it give?
Answer: inactive

Question: How did the Potency turn out when Cc1cc(Cl)ccc1OC(C)C(=O)Nc1ccc([N+](=O)[O-])cn1 (stereo unspecified) was run?
Answer: inconclusive [inhibitor, single point]

Question: With CCCc1cc(C(=O)NNC(=S)Nc2cccc(C)c2)cs1 as the compound, how does the Potency read?
Answer: inconclusive [inhibitor, single point]

Question: COc1ccc(C/C(C)=N/NC(=S)Nc2ccc(C(C)C)cc2)cc1 was tested. Which Potency did it give?
Answer: inconclusive [inhibitor, partial curve, poor fit]

Question: How did the Potency turn out when OCCN1CCN(CC#CCn2c3ccccc3c3ccccc32)CC1 was run?
Answer: inconclusive [inhibitor, partial curve, poor fit]

Question: How did the Potency turn out when COc1cccc(N2CCN(C(=O)CN3C(=O)NC(C)(c4ccc5ccccc5c4)C3=O)CC2)c1 (stereo unspecified) was run?
Answer: inconclusive [inhibitor, single point]

Question: Cc1cccc(NC(=O)CCNS(=O)(=O)c2ccc3c(c2)CCCC(=O)N3)c1C was tested. Which Potency did it give?
Answer: inactive

Question: O=C(/C=C/c1cccc(Cl)c1)c1nc2ccccc2[nH]1 was tested. Which Potency did it give?
Answer: inconclusive [inhibitor, partial curve, poor fit]

Question: How did the Potency turn out when CCCCCCOc1ccc(/C(C)=N/NC2=NCCN2)cc1 was run?
Answer: inconclusive [inhibitor, partial curve, poor fit]

Question: For CC(=O)CCS(=O)(=O)c1ccc(Oc2ccc(S(=O)(=O)CCC(C)=O)cc2)cc1, which Potency is on record?
Answer: inconclusive [inhibitor, single point]

Question: O=C(c1cccc(C(=O)N2CCN(c3ccc(F)cc3)CC2)c1)N1CCN(c2ccc(F)cc2)CC1 was tested. Which Potency did it give?
Answer: inconclusive [inhibitor, single point]

Question: CC1CCN(CC(O)COc2ccc(-c3ccccc3)cc2)CC1 (stereo unspecified) was tested. Which Potency did it give?
Answer: inconclusive [inhibitor, partial curve, poor fit]

Question: CSCC[C@H](NC(=O)OC(C)(C)C)c1nnc(SCC=C(C)C)o1 was tested. Which Potency did it give?
Answer: inconclusive [inhibitor, single point]

Question: How did the Potency turn out when COc1ccc(NC2CCCN(C(=O)CCOc3ccccc3)C2)cc1 (stereo unspecified) was run?
Answer: inconclusive [inhibitor, partial curve, poor fit]

Question: For Cn1c(Oc2ccc(F)cc2F)c(C=O)c2ccccc21, which Potency is on record?
Answer: inconclusive [inhibitor, partial curve, poor fit]

Question: How did the Potency turn out when CC(C)(C)OC(=O)N1CCC(c2c(C(=O)Nc3ccc4c(c3)OCO4)cnn2-c2ccc(F)cc2F)CC1 was run?
Answer: inconclusive [inhibitor, single point]

Question: How did the Potency turn out when CCN(CC)CCNC(=O)c1cc2cc(Br)ccc2s1 was run?
Answer: active: 3.16 µM

Question: Which Potency does the source give for O=c1c(C(c2ccc(Br)cc2)c2c(O)nc3n(c2=O)CCS3)c(O)nc2n1CCS2 here?
Answer: inactive

Question: Cc1cc(-c2ccc(C)c(S(=O)(=O)N(Cc3cccs3)C(C)C)c2)on1 was tested. Which Potency did it give?
Answer: active: 12.6 µM

Question: With CC1(C(=O)Nc2ccc3c(c2)OCCO3)CCN1C(=O)Cc1ccc(-c2ccccc2)cc1 (stereo unspecified) as the compound, how does the Potency read?
Answer: inconclusive [inhibitor, partial curve, poor fit]

Question: With COc1ccc(CNC(=S)Nc2cccc(C)c2C)cc1 as the compound, how does the Potency read?
Answer: inconclusive [inhibitor, single point]

Question: CCc1ccc2occ(CC(=O)Nc3c(C(=O)Nc4ccc(Cl)cc4)oc4ccccc34)c2c1 was tested. Which Potency did it give?
Answer: inconclusive [inhibitor, full curve]

Question: For CC(C(=O)Nc1ccccc1Sc1ccccc1)N(c1ccccc1)S(C)(=O)=O (stereo unspecified), which Potency is on record?
Answer: inconclusive [inhibitor, partial curve, poor fit]

Question: For CC1=C(C)CC(C(=O)NNC(=O)c2ccccc2O)C(C(=O)O)C1 (stereo unspecified), which Potency is on record?
Answer: inactive

Question: Which Potency does the source give for COc1ccc(Cc2nnc(SCC(=O)NCc3ccco3)o2)cc1 here?
Answer: inactive

Question: CN(C)CCNC(=O)c1ccc2nc(CCc3ccccc3)oc2c1 was tested. Which Potency did it give?
Answer: inconclusive [inhibitor, partial curve]

Question: Which Potency does the source give for N#C/C(=C\Nc1ccc2c(c1)OCCO2)c1nc(-c2ccccc2)cs1 here?
Answer: inactive

Question: With CCN1C(=NCCc2ccc(Br)cc2)N[C@@H](c2ccccc2)[C@H](C(=O)OC)[C@H]1C as the compound, how does the Potency read?
Answer: inconclusive [inhibitor, single point]

Question: For COc1ccc(N(CC(=O)NCc2ccc(C)cc2)S(=O)(=O)c2ccccc2[N+](=O)[O-])c(OC)c1, which Potency is on record?
Answer: inconclusive [inhibitor, single point]

Question: How did the Potency turn out when CCOC(=O)c1c(NC(=O)C2CCCCC2)sc2c1CCN(CC)C2 was run?
Answer: inconclusive [inhibitor, partial curve, poor fit]

Question: O=C(CCS(=O)(=O)c1ccccc1)Nc1ccc(N2CCN(Cc3ccccc3)CC2)cc1 was tested. Which Potency did it give?
Answer: inconclusive [inhibitor, partial curve, poor fit]

Question: How did the Potency turn out when O=[N+]([O-])c1ccc(Cn2cc(-c3cccc(C(F)(F)F)c3)nn2)cc1 was run?
Answer: inconclusive [inhibitor, single point]

Question: COc1ccc2cc([C@H](C)C(=O)N(C)Cc3ccccc3N3CCCC3)ccc2c1 was tested. Which Potency did it give?
Answer: inconclusive [inhibitor, single point]

Question: Which Potency does the source give for O=C(NCc1ccccc1C(F)(F)F)C12CN(Cc3ccccc3)CC1C(c1ccc([N+](=O)[O-])cc1)=NO2 (stereo unspecified) here?
Answer: inconclusive [inhibitor, partial curve, poor fit]

Question: How did the Potency turn out when CCn1cc(CCC(=O)NCCc2ccccc2)c2ccccc21 was run?
Answer: inconclusive [inhibitor, partial curve, poor fit]

Question: For O=C(C1CCN(c2nc(-c3ccccc3)nc3c2CCC3)CC1)N1CCCC1, which Potency is on record?
Answer: inconclusive [inhibitor, full curve, poor fit]

Question: Which Potency does the source give for Cc1ccc(Cn2c(SCc3ccc(C(=O)NCCc4ccccc4)cc3)nc3ccncc32)cc1 here?
Answer: inconclusive [inhibitor, single point]

Question: Which Potency does the source give for Cc1[nH]c2ccccc2c1C(=O)CSC(=S)N1CCCCC1 here?
Answer: inconclusive [inhibitor, partial curve]

Question: Which Potency does the source give for Cc1nc(-c2ccc(C)c(N3CCN(C(=O)Nc4ccc(Br)cc4)CC3)c2)no1 here?
Answer: inactive

Question: COc1ccccc1NS(=O)(=O)c1cc(C(=O)NC2CCN(Cc3ccccc3)CC2)ccc1C was tested. Which Potency did it give?
Answer: inconclusive [inhibitor, partial curve, poor fit]

Question: O=C(NCC(c1ccco1)N1CCc2ccccc2C1)C(=O)Nc1ccccc1F (stereo unspecified) was tested. Which Potency did it give?
Answer: inconclusive [inhibitor, partial curve, poor fit]

Question: How did the Potency turn out when Cc1ccc(S(=O)(=O)N2C[C@@H]3[C@H]4CC[C@H](C4)[C@@H]3[C@@H](C)[C@H]2c2ccn(Cc3ccccc3)c2)cc1 was run?
Answer: inconclusive [inhibitor, partial curve, poor fit]

Question: Which Potency does the source give for CC1CC(C)CN(C(C(=O)NC2CCCCC2)c2cc3ccccc3o2)C1 (stereo unspecified) here?
Answer: inconclusive [inhibitor, partial curve, poor fit]
